This is an account of results in publication PMC12820563, “FoxP3 forms a head-to-head dimer in vivo and stabilizes its multimerization on adjacent microsatellites”.

The list shows a part of the results.

This assay concerns the target T1, MBP-FoxP1dN (Mus musculus, UniProt P58462 326-579).
T1 sequence: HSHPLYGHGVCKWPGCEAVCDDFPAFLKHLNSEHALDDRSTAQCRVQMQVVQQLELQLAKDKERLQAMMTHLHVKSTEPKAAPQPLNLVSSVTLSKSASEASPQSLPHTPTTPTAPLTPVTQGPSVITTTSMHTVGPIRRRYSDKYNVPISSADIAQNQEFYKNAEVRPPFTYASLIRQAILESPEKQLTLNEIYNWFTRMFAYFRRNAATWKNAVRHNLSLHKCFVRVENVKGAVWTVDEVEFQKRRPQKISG
Description: PD-seq (MBP pull-down with sequencing); 20 mM Tris-HCl pH 7.5, 100 mM NaCl, 1.5 mM MgCl2, 0.4 uM protein, 0.1 uM dsDNA library, 30 min, room temperature, amylose pull-down; high values mean tight binding. The note with it: protein: recombinant; tags: His6-MBP; chain copies: 2; dsDNA, one strand shown. The essentials: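 A degenerate double-stranded DNA library, filled in with Klenow, was added at 0.1 µM to 0.4 µM His6-MBP-tagged mouse FoxP3 or FoxP1 fragment lacking the N-terminus, expressed in E. coli. Incubation lasted 30 min at room temperature in Tris pH 7.5 buffer with NaCl and MgCl2, after which complexes were collected on amylose resin, washed three times, digested with proteinase K to free the DNA, barcoded by PCR and sequenced by Illumina. Binding is the pooled-replicate reads-per-million enrichment of pull-down over input.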
“GATGATTGTTCTCCCAGCTGATGAATTGCCTATATCGAGTAAACAAATTTTCCTAATCTTTCTGTTCAAGCGCCATCTAC”: the binding signal was 0.991 RPM ratio (pull-down/input). The figure for “GATGATTGTTCTCCCAGCTGATGAATTCTCAGAATCGAGTAAACAAATTTTCCTAATCTTTCTGTTCAAGCGCCATCTAC” is 0.904 RPM ratio (pull-down/input); for “GATGATTGTTCTCCCAGCTGATGAATTACCGGAGTCGAGTAAACAAATTTTCCTAATCTTTCTGTTCAAGCGCCATCTAC” it is 0.847 RPM ratio (pull-down/input); for “GATGATTGTTCTCCCAGCTGATGAATTAACATTTTCGAGTAAACAAATTTTCCTAATCTTTCTGTTCAAGCGCCATCTAC” it is 1.21 RPM ratio (pull-down/input). Under “GATGATTGTTCTCCCAGCTGATGAATTGAGGATTTCGAGTAAACAAATTTTCCTAATCTTTCTGTTCAAGCGCCATCTAC” stands 0.811 RPM ratio (pull-down/input); under “GATGATTGTTCTCCCAGCTGATGAATTACGGATGTCGAGTAAACAAATTTTCCTAATCTTTCTGTTCAAGCGCCATCTAC”, 0.941 RPM ratio (pull-down/input); under “GATGATTGTTCTCCCAGCTGATGAATTAAATGCGTCGAGTAAACAAATTTTCCTAATCTTTCTGTTCAAGCGCCATCTAC”, 1.43 RPM ratio (pull-down/input).

Turning to “GATGATTGTTCTCCCAGCTGATGAATTGCTGGAGTCGAGTAAACAAATTTTCCTAATCTTTCTGTTCAAGCGCCATCTAC”, the binding signal was 0.902 RPM ratio (pull-down/input). Under “GATGATTGTTCTCCCAGCTGATGAATTAACCATTTCGAGTAAACAAATTTTCCTAATCTTTCTGTTCAAGCGCCATCTAC” stands 0.907 RPM ratio (pull-down/input). With “GATGATTGTTCTCCCAGCTGATGAATTGAATAAATCGAGTAAACAAATTTTCCTAATCTTTCTGTTCAAGCGCCATCTAC”, the binding signal was 1.12 RPM ratio (pull-down/input). The figure for “GATGATTGTTCTCCCAGCTGATGAATTCTTATCCTCGAGTAAACAAATTTTCCTAATCTTTCTGTTCAAGCGCCATCTAC” is 0.857 RPM ratio (pull-down/input); for “GATGATTGTTCTCCCAGCTGATGAATTGCTAGTCTCGAGTAAACAAATTTTCCTAATCTTTCTGTTCAAGCGCCATCTAC” it is 1.02 RPM ratio (pull-down/input). As for “GATGATTGTTCTCCCAGCTGATGAATTAGTTTATTCGAGTAAACAAATTTTCCTAATCTTTCTGTTCAAGCGCCATCTAC”, the binding signal is 1.3 RPM ratio (pull-down/input).

With “GATGATTGTTCTCCCAGCTGATGAATTGTGGCCTTCGAGTAAACAAATTTTCCTAATCTTTCTGTTCAAGCGCCATCTAC”, the binding signal was 1.13 RPM ratio (pull-down/input). Under “GATGATTGTTCTCCCAGCTGATGAATTAGTATCTTCGAGTAAACAAATTTTCCTAATCTTTCTGTTCAAGCGCCATCTAC” stands 1.09 RPM ratio (pull-down/input); under “GATGATTGTTCTCCCAGCTGATGAATTGGACCTGTCGAGTAAACAAATTTTCCTAATCTTTCTGTTCAAGCGCCATCTAC”, 0.77 RPM ratio (pull-down/input). The figure for “GATGATTGTTCTCCCAGCTGATGAATTTAAGCTGTCGAGTAAACAAATTTTCCTAATCTTTCTGTTCAAGCGCCATCTAC” is 0.937 RPM ratio (pull-down/input); for “GATGATTGTTCTCCCAGCTGATGAATTCTGGGACTCGAGTAAACAAATTTTCCTAATCTTTCTGTTCAAGCGCCATCTAC” it is 0.753 RPM ratio (pull-down/input).

Take “GATGATTGTTCTCCCAGCTGATGAATTGAGTCACTCGAGTAAACAAATTTTCCTAATCTTTCTGTTCAAGCGCCATCTAC”: the binding signal is 0.924 RPM ratio (pull-down/input). As to “GATGATTGTTCTCCCAGCTGATGAATTCGCCACTTCGAGTAAACAAATTTTCCTAATCTTTCTGTTCAAGCGCCATCTAC”, the binding signal is 0.857 RPM ratio (pull-down/input). Regarding “GATGATTGTTCTCCCAGCTGATGAATTTTCCTCGTCGAGTAAACAAATTTTCCTAATCTTTCTGTTCAAGCGCCATCTAC”, the binding signal is 0.898 RPM ratio (pull-down/input). Under “GATGATTGTTCTCCCAGCTGATGAATTAGCTCTGTCGAGTAAACAAATTTTCCTAATCTTTCTGTTCAAGCGCCATCTAC” stands 0.794 RPM ratio (pull-down/input). The figure for “GATGATTGTTCTCCCAGCTGATGAATTCTAGTACTCGAGTAAACAAATTTTCCTAATCTTTCTGTTCAAGCGCCATCTAC” is 0.84 RPM ratio (pull-down/input); for “GATGATTGTTCTCCCAGCTGATGAATTCGGTTGTTCGAGTAAACAAATTTTCCTAATCTTTCTGTTCAAGCGCCATCTAC” it is 1.21 RPM ratio (pull-down/input). Under “GATGATTGTTCTCCCAGCTGATGAATTTAAATGTTCGAGTAAACAAATTTTCCTAATCTTTCTGTTCAAGCGCCATCTAC” stands 1.03 RPM ratio (pull-down/input); under “GATGATTGTTCTCCCAGCTGATGAATTGCGTAACTCGAGTAAACAAATTTTCCTAATCTTTCTGTTCAAGCGCCATCTAC”, 1.14 RPM ratio (pull-down/input). As for “GATGATTGTTCTCCCAGCTGATGAATTGGAAATATCGAGTAAACAAATTTTCCTAATCTTTCTGTTCAAGCGCCATCTAC”, the binding signal was 0.978 RPM ratio (pull-down/input).

Take “GATGATTGTTCTCCCAGCTGATGAATTATGCTACTCGAGTAAACAAATTTTCCTAATCTTTCTGTTCAAGCGCCATCTAC”: the binding signal was 1.09 RPM ratio (pull-down/input).

For “GATGATTGTTCTCCCAGCTGATGAATTTCCGAATTCGAGTAAACAAATTTTCCTAATCTTTCTGTTCAAGCGCCATCTAC”, the binding signal is 0.882 RPM ratio (pull-down/input). Under “GATGATTGTTCTCCCAGCTGATGAATTGCGACGATCGAGTAAACAAATTTTCCTAATCTTTCTGTTCAAGCGCCATCTAC” stands 0.98 RPM ratio (pull-down/input); under “GATGATTGTTCTCCCAGCTGATGAATTATCCCGATCGAGTAAACAAATTTTCCTAATCTTTCTGTTCAAGCGCCATCTAC”, 0.896 RPM ratio (pull-down/input).

Turning to “GATGATTGTTCTCCCAGCTGATGAATTGCTTGTATCGAGTAAACAAATTTTCCTAATCTTTCTGTTCAAGCGCCATCTAC”, the binding signal is 1.38 RPM ratio (pull-down/input).
